The values below come from US20070099244A1 (TEXAS A AND M UNIVERSITY SYSTEM, published 2007).

Sequences and labels used below:
B2: recombinant I domain of integrin α2 subunit (receptor)
chain: CPSLIDVVVVCDESNSIYPWDAVKNFLEKFVQGLDIGPTKTQVGLIQYANNPRVVFNLNTYKTKEEMIVATSQTSQYGGDLTNTFGAIQYARKYAYSAASGGRRSATKVMVVVTDGESHDGSMLKAVIDQCNHDNILRFGIAVLGYLNRNALDTKNLIKEIKAIASIPTERYFFNVSDEAALLEKAGTLGEQIFSIEG

Non-standard residues stand in square brackets, D forms with d. No end group written: not given here. Hyp = O=C(O)[C@@H]1C[C@@H](O)CN1

Test [1] addresses T1, recombinant I domain of integrin α1 subunit (UniProt P56199 167-364). The test can be described thus: competition ELISA; peptide competes with coated type III procollagen for 0.5 µM α1I. For orientation: ELISA stands for enzyme-linked immunosorbent assay.
Test [2] concerns the target B2. The test can be described thus: competition ELISA; peptide competes with coated type III procollagen for 5 µM α2I.
Test [3] deals with T1, recombinant I domain of integrin α1 …. The test can be described thus: competition ELISA; peptide competes with coated bovine type I collagen for 0.5 µM α1I.
The target in test [4] is B2. The test can be described thus: SPR (BIAcore 3000) at 15° C, peptide #1 immobilised on a CM5 chip, I domain 0.5-30 nM, 1:1 binding model.
The target in test [5] is T1, recombinant I domain of integrin α1 …. Described as above.
Test [6] has as its target B2. The test can be described thus: competition ELISA; peptide competes with coated bovine type I collagen for 5 µM α2I.
Test [7] deals with T2, purified recombinant human type III procollagen (yeast cells from FibroGen) (human, UniProt P02461 24-1466, hydroxyproline residues formed by co-expressed prolyl 4-hydroxylase; positions not given).
T2 construct: also called Collagen III; procollagen III
T2 sequence (looked up): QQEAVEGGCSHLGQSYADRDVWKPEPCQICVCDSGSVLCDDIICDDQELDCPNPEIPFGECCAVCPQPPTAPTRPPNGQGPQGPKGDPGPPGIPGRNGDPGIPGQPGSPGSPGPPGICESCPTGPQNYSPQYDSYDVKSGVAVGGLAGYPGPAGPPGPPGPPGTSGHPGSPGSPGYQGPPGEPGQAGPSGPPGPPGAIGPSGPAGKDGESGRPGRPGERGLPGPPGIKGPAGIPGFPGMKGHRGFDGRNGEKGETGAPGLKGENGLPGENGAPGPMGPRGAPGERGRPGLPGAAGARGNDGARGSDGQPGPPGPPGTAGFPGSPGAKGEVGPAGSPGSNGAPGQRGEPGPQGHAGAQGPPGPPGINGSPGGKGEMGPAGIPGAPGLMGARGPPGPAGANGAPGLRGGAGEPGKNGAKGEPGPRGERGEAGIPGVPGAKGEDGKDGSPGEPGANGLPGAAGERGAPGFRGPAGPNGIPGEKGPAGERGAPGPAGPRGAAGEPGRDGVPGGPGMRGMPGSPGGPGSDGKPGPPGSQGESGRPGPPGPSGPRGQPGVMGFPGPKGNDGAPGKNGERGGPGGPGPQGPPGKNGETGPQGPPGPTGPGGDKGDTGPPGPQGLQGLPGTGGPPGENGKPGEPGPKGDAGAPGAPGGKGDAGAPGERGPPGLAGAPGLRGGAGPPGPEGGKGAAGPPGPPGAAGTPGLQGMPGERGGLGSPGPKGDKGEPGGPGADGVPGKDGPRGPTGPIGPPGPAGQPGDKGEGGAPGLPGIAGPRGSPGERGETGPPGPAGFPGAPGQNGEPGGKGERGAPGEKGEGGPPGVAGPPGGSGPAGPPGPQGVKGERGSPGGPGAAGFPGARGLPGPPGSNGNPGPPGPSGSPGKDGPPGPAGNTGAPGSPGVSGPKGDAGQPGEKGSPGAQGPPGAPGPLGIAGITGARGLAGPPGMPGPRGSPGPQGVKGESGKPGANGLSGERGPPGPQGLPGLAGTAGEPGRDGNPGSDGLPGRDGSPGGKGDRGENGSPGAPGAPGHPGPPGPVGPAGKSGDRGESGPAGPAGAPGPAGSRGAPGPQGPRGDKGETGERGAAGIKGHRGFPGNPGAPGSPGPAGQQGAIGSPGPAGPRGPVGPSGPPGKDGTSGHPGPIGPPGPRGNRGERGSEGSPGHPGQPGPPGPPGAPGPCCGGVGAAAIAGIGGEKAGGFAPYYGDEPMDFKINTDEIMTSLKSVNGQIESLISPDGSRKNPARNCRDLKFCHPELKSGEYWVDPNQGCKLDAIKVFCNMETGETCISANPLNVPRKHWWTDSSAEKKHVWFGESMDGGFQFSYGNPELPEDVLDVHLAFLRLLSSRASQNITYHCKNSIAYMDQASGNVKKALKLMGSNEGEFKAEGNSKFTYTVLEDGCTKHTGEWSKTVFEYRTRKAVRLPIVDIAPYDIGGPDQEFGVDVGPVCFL
The test can be described thus: SPR (BIAcore 3000), collagen immobilised on a CM5 chip, equilibrium analysis; high affinity class of sites. On the technique in general: Surface plasmon resonance follows binding to a sensor surface in real time, without labels.

Test [8] addresses T3, purified recombinant human type I procollagen (yeast cells from FibroGen) (human, UniProt P02452 23-1464; P08123 23-1366, hydroxyproline residues formed by co-expressed prolyl 4-hydroxylase; positions not given).
T3 construct: Procollagen, triple helical; also called Collagen I; procollagen I
Described as above.

In test [9] the target is T4, bovine mature type II collagen (Sigma) (bovine, UniProt P02459 182-1487).
T4 construct: mature; Bought tissue collagen; also called type II mature collagen; Collagen II
The description is as above.

The target in test [10] is T2, purified recombinant human type III …. The test can be described thus: SPR (BIAcore 3000), collagen immobilised on a CM5 chip, equilibrium analysis; low affinity class of sites.
In test [11] the target is T3, purified recombinant human type I …. The test is described as above.
The target in test [12] is T4, bovine mature type II collagen (Sigma). The test is described as above.
T4 sequence (P02459 182-1487): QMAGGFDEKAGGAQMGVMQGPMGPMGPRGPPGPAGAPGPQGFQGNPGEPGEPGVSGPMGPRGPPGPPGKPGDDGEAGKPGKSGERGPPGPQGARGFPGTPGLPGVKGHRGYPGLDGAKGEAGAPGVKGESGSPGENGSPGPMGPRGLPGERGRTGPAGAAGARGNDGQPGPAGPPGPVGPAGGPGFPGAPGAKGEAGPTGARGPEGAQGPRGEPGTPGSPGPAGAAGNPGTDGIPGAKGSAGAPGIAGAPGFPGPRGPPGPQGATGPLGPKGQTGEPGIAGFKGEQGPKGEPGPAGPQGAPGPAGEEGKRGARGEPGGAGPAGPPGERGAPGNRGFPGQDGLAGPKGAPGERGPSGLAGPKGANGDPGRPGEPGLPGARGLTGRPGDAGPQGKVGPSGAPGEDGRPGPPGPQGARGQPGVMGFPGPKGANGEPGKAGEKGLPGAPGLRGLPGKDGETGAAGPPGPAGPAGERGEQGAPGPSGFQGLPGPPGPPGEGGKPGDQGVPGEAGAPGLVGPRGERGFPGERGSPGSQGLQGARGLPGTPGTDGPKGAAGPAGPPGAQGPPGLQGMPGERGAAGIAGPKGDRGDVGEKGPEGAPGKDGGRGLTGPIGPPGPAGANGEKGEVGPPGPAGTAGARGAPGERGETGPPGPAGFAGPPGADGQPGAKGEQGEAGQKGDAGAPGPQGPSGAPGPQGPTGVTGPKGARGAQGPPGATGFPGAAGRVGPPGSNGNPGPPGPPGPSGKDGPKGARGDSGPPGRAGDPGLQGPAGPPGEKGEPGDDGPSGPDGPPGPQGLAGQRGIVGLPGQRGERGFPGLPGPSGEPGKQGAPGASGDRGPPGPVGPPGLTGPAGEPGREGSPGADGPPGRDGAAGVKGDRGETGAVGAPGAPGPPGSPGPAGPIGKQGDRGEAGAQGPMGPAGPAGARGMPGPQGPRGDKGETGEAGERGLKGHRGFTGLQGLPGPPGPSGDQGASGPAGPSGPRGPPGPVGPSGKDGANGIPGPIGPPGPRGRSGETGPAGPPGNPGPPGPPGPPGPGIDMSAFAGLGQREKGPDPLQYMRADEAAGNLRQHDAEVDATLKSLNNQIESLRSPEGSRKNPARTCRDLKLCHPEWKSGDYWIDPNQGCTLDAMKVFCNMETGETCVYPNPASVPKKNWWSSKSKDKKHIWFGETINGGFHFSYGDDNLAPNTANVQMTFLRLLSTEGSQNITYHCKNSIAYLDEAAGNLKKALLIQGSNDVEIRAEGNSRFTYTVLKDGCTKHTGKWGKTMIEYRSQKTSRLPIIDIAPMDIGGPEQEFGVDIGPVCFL

T3 sequence (P02452 23-1464, chain 1 of 2): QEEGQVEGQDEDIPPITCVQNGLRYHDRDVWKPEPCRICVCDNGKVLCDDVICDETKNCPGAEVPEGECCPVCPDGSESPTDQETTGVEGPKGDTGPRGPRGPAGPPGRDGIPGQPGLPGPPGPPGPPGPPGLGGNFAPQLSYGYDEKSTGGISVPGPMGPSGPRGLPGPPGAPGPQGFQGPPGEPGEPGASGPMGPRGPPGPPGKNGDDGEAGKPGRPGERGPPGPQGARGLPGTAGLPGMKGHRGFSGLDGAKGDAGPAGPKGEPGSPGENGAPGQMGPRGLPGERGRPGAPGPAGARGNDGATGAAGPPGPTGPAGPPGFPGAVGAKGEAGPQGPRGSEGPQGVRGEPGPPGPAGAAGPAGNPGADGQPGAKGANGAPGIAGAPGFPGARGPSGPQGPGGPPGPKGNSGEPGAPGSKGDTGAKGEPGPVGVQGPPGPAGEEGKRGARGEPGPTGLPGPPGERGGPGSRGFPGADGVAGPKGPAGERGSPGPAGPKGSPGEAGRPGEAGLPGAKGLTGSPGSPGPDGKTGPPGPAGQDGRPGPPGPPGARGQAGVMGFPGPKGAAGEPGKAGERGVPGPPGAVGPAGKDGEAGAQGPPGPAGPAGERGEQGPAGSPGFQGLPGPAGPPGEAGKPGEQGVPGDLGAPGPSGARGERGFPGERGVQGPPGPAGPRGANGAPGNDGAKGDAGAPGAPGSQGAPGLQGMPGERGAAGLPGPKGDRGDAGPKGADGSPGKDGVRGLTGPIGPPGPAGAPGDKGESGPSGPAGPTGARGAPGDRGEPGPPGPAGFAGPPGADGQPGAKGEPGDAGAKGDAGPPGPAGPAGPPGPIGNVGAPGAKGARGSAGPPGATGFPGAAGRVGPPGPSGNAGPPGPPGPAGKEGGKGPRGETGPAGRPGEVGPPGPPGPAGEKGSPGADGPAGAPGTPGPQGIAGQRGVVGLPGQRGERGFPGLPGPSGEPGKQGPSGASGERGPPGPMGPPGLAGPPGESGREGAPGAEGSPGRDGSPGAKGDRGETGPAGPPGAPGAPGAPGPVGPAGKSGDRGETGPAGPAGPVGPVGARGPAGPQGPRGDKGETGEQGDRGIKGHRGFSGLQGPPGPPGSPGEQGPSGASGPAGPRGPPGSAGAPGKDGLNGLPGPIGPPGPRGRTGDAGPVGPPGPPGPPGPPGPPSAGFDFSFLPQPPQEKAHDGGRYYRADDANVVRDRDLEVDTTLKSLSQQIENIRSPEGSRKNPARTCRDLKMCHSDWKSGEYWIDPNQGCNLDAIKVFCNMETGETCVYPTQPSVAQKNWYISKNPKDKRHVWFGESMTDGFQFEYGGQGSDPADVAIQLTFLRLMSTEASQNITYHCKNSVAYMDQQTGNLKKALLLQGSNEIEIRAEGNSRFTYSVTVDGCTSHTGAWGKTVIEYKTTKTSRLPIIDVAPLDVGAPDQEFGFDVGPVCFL
T3 sequence (P08123 23-1366, chain 2 of 2, further chain): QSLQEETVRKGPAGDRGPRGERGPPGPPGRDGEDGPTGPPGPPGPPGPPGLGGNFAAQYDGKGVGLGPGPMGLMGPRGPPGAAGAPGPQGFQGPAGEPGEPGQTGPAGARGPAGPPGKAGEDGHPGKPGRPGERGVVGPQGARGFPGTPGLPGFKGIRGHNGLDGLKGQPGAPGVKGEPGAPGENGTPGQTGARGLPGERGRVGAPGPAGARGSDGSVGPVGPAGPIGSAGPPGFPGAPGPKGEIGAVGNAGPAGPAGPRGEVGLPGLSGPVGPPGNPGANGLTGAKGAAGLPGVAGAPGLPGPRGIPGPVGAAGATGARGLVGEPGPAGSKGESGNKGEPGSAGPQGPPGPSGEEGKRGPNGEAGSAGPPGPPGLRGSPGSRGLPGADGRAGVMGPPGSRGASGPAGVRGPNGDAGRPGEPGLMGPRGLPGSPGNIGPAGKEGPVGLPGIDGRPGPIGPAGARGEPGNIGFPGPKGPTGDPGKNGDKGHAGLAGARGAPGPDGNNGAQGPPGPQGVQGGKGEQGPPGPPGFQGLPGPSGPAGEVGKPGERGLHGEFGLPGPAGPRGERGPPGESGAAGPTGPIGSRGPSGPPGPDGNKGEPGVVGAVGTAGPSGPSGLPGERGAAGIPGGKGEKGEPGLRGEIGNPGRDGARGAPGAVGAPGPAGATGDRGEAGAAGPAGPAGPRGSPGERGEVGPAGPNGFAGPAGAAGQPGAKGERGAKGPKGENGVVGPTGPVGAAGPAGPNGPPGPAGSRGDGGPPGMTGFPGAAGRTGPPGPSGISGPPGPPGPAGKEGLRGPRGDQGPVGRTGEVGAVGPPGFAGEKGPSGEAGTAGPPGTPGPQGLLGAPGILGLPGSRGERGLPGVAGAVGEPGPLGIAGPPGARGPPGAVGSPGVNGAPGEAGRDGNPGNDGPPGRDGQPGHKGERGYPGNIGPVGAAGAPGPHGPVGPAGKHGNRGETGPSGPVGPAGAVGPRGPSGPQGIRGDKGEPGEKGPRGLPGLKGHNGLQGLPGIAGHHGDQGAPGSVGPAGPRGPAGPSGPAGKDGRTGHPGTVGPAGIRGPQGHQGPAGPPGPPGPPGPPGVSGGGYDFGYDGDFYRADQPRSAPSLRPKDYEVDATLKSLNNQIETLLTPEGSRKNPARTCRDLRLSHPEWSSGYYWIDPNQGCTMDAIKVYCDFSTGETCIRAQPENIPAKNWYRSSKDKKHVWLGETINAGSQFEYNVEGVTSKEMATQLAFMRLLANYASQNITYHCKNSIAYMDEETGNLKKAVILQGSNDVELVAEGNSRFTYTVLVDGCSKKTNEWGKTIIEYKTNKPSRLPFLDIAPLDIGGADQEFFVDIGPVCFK

B1: synthetic collagen peptide #1, (GPO)3GROGROGERGLO(GPO)3 (peptide)
peptide: GP[Hyp]GP[Hyp]GP[Hyp]GR[Hyp]GR[Hyp]GERGL[Hyp]GP[Hyp]GP[Hyp]GP[Hyp]
notes: Forms a collagen-like triple helix by CD
In general, IC50 refers to the concentration that inhibits the measured activity by half. For orientation: Kd means the constant that tells how readily two partners part at equilibrium. The koff is the rate constant with which the complex falls apart. The kon is the second-order rate constant of association. Turning to B1, the IC50 was found to be 1000 nM in test [1], 1900 nM in test [2], 1400 nM in [3] and 140 nM in test [6]. The results for the Kd in [4] and in [5] were 283 nM and 23 nM, respectively. Besides, the results for the koff in [4] and in test [5] were 0.012 s⁻¹ and 0.0013 s⁻¹, respectively. The figures for the kon in [4] and in test [5] were 44000 M⁻¹ s⁻¹ and 56000 M⁻¹ s⁻¹, respectively.

Regarding B2, the Kd in [7] worked out at 330 nM; in test [8], 260 nM; in [9], 1750 nM; in test [10], 14500 nM; in test [11] it was 3990 nM; in test [12], 16500 nM.
